Measurements as given in PubChem BioAssay AID624417 (National Center for Advancing Translational Sciences (NCATS), 2012).
Out of some 410,000 compounds screened, about 6,400 (1.6%) were called active. The shares of active, inactive and inconclusive entries below differ from those in the screen. Calls come from the whole dose curve; as a rule, active = well fitted inhibition curve with a large enough effect; inconclusive = small, poorly fitted or top-dose-only effect; inactive = no such curve, though single readings can be large or run the other way. No potency is given beside an inconclusive call; the fits are too rough.

target: Glucagon-like peptide 1 receptor (Homo sapiens) (UniProt P43220); test: qHTS of GLP-1 Receptor Inverse Agonists (Inhibition Mode); conditions: HEK293 GLP-1R CRE-luciferase, luminescence, 24 h, GLP-1R form is constitutively active; series mostly up to 38.3 µM; note: nearly all actives have a fitted effect of over 55% in size
Summary of the method: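 Luminescence readout: a drop in cAMP-driven luciferase signal flags inverse agonism at a constitutively active GLP-1R stably expressed in HEK293. Compound exposure lasted 24 hr at 37 deg C, 5% CO2.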
Potency is the fitted concentration of half-maximal effect; tags give direction and shape of the fitted curve.

Sequence of UniProt P43220 (P43220 whole entry, looked up): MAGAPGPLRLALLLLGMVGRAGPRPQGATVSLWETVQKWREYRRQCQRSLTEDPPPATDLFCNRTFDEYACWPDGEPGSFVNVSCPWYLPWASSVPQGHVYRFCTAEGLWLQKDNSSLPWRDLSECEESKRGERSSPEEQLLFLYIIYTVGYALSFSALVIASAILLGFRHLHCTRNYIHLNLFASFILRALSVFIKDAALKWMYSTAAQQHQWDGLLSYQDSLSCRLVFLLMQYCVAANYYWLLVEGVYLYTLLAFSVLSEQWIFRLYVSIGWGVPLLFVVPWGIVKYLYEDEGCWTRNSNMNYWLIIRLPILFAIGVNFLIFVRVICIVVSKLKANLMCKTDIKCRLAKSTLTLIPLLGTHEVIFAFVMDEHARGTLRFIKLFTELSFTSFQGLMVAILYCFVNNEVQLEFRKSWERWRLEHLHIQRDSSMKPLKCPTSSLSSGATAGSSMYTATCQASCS

SMILES	Potency
COc1ccc(C(=O)c2c(-c3ccc(OC)cc3)oc3ccc(-c4cc(OC)c(OC)c(OC)c4)cc23)cc1	inconclusive [inhibitor, full curve, poor fit]
CCSc1ccc([C@@H]2[C@@H]3C(=O)N(C)C(=O)[C@@H]3[C@]3(C(=O)OC)CCCCN23)cc1	inconclusive [inhibitor, partial curve, poor fit]
Cc1nc2ccc(S(=O)(=O)N(CC(=O)Nc3cccc(F)c3)Cc3ccccc3)cc2s1	inconclusive [inhibitor, partial curve]
COc1cc(CNC(C)c2ccccc2)cc(Br)c1OCc1ccc(F)cc1 (centres undefined)	inconclusive [inhibitor, partial curve, poor fit]
Cc1nn(C)c(C(=O)NC2C3CC4CC(C3)CC2C4)c1Cl (centres undefined)	inconclusive [inhibitor, partial curve, poor fit]
CS(=O)(=O)N(Cc1ccc(Cl)cc1)c1ccc(C(=O)NCc2ccccn2)cc1	inconclusive [inhibitor, single point]
CCn1c(COc2ccc(C)cc2)nnc1SCC(=O)C(C)(C)C	inconclusive [inhibitor, partial curve, poor fit]
COc1ccc(NC(=O)Nc2cccc(F)c2)c(OC)c1	inconclusive [inhibitor, single point]
Cc1ccc(/C=N/NC(=O)CSc2nc3ccccc3n2Cc2ccc(Cl)cc2)o1	active: 10 µM
Cc1cccc(CC(=O)Nc2sc(C(C)C)cc2C(=O)N2CCOCC2)c1	inconclusive [inhibitor, single point]
COc1cc(/C=C/C(=O)NC(C)C2CC3CCC2C3)cc(OC)c1OC (centres undefined)	inactive
O=C(c1ccccc1)C(CN1CCCCC1)c1ccccc1 (centres undefined)	active: 2.82 µM
O=C(c1cc(-c2cccc(O)c2)on1)N1CCCC1	inconclusive [inhibitor, single point]
CCOC(=O)C1(CCOc2ccccc2)CCN(Cc2ccc(C#CCCO)cc2)CC1	active: 7.94 µM
O=C(CN1CCOCC1)Nc1ncc(Cc2cccc3ccccc23)s1	inconclusive [inhibitor, single point]
COc1ccc(C2c3sc(=O)[nH]c3SC3C4CCC(C4)C23)cc1OC (centres undefined)	inconclusive [inhibitor, single point]
CCOC(=O)C1CCN(C(=O)COc2cc(C)c(Br)cc2C)CC1	inconclusive [inhibitor, partial curve, poor fit]
Cc1nn(-c2ccccc2)c(Cl)c1C(=O)OCC(=O)NCCc1ccccc1	inconclusive [inhibitor, single point]
CCN(CC)c1nc(NNC(=O)c2ccccc2)nc(N(CC)CC)n1	inconclusive [inhibitor, single point]
CCc1ccc(CN(C)CC(O)COc2cccc3ccccc23)cc1 (centres undefined)	inconclusive [inhibitor, partial curve, poor fit]

SMILES	Potency
O=C(Cc1cccs1)NCc1cccc(C(F)(F)F)c1	inconclusive [inhibitor, single point]
COCC(=O)Nc1c(C(=O)Nc2ccc3c(c2)OCCO3)oc2ccccc12	inconclusive [inhibitor, single point]
COc1cccc(CSc2nc3n(n2)C(CC(C)C)C(C(=O)Nc2ccccc2OC)=C(C)N3)c1 (centres undefined)	inactive
Cc1nc(NCCc2ccccc2)sc1C(=O)N(C)C	inactive
CCOc1ccc(NC(=O)NNC(=O)C2CCC(C(C)(C)C)CC2)cc1 (centres undefined)	inconclusive [inhibitor, partial curve]
CCN(CC)C(=O)C1CCN(S(=O)(=O)c2c(C)noc2/C=C/c2cccc(C)c2)CC1	active: 10 µM
COc1cccc(O)c1CN1CCC(C(=O)Nc2ccc(-c3cccc(C)c3)cc2)CC1	inconclusive [inhibitor, full curve]
CCOc1ccccc1NC(=O)C(OC(=O)c1ccc(O)cc1)c1ccccc1 (centres undefined)	inconclusive [inhibitor, single point]
CCOC(=O)N1CCC(NC(=O)c2ccc3c(c2)N=C(CC)c2ccccc2S3)CC1	inconclusive [inhibitor, partial curve, poor fit]
COc1cccc(CNc2nc3ccccc3n2CCN2CCCCC2)c1	inconclusive [inhibitor, partial curve, poor fit]
COc1ccc([C@@H]2[C@@H]3C(=O)N(C(C)(C)C)C(=O)[C@@H]3[C@]3(Cc4ccccc4)C(=O)N(c4cccc(Br)c4)C(=O)N23)cc1	inconclusive [inhibitor, full curve, poor fit]
CC(=O)c1ccc(NC(=O)Cn2c(-n3nc(C)cc3C)nc(C)c(C)c2=O)cc1	inactive
O=C(CNCc1ccccc1Cl)Nc1cc(S(=O)(=O)N2CCOCC2)ccc1Cl	inconclusive [inhibitor, partial curve, poor fit]
CCCCN(CC)C(=O)c1cc2c(=O)n3cccc(C)c3nc2n1C	inactive
CN(CC(=O)Nc1ccccc1C(F)(F)F)C(=O)c1cc(-c2cccs2)nn1-c1ccccc1	inconclusive [inhibitor, partial curve, poor fit]
O=S1(=O)N[C@H](Cc2ccccc2)COc2cccc(N3CCN(Cc4ccccc4F)CC3)c21	inconclusive [inhibitor, single point]
COCC1CCCCN1C(=O)c1cc(COc2ccc(C)c(C)c2)on1 (centres undefined)	inconclusive [inhibitor, single point]
CC(C)(C)c1ccc(C(=O)Nc2nnc(Cc3c[nH]c4ccccc34)s2)cc1	inconclusive [inhibitor, full curve]
Fc1cccc(Cc2noc(CN3CCCN(C4Cc5ccccc5C4)CC3)n2)c1	inconclusive [inhibitor, partial curve, poor fit]
